# Laboratory results as given in paper PMC11995724, “Antibiotic target discovery by integrated phenotypic and activity-based profiling of electrophilic fragments” (Cell chemical biology, 2025).
# The whole screen tested about 3,200 compounds, of which about 110 (3.4%) showed an effect of 50% or more. This is one part of the list.
# Test system: T1, V. cholerae SAD30
# T1 construct: SAD30
# Design: species or system S. aureus MSSA476 (TSB) or V. cholerae SAD30 (LB); 384-well bacterial growth screen at 25 uM, OD600 relative to DMSO control
# Details: relative growth, OD600, LB; 25 µM; inhibitor
row,SMILES,% of control remaining [%]
1,"C=CC(=O)NCC(=O)N1CCCO1 [1-H05, N-[2-(1,2-oxazolidin-2-yl)-2-oxoethyl]prop-2-enamide]",95.9641
2,"CN1C(=O)C(=C(C#N)C(=O)NCc2ccc(Cl)cc2)c2ccccc21 [8-K17, N-[(4-chlorophenyl)methyl]-2-cyano-2-(1-methyl-2-oxo-2,3-dihydro-1H-indol-3-ylidene)acetamide]",57.9878
3,"N#CC(=Cc1ccc2c(c1)OCCO2)C(=O)NCc1ccccc1 [8-H03, N-benzyl-2-cyano-3-(2,3-dihydro-1,4-benzodioxin-6-yl)prop-2-enamide]",91.2984
4,"O=C(CCl)Nc1cc(C(F)(F)F)ccc1Cl [4-J04, 2-chloro-N-[2-chloro-5-(trifluoromethyl)phenyl]acetamide]",111.106
5,"COc1cccc(C=C(C#N)C(=O)Nc2ccccc2C(=O)O)c1 [9-G08, 2-[2-cyano-3-(3-methoxyphenyl)prop-2-enamido]benzoic acid]",85.4521
6,"O=C(CCl)Nc1ccnn1Cc1ccccc1Cl [6-O08, 2-chloro-N-{1-[(2-chlorophenyl)methyl]-1H-pyrazol-5-yl}acetamide]",97.2225
7,"CC(Cl)C(=O)NC(C)c1nnnn1C1CC1 (stereo not shown) [7-N21, 2-chloro-N-[1-(1-cyclopropyl-1H-1,2,3,4-tetrazol-5-yl)ethyl]propanamide]",103.882
8,"Cc1cc(C)c(NC(=O)C(C#N)=Cc2ccccc2C)c(C)c1 [8-E13, 2-cyano-3-(2-methylphenyl)-N-(2,4,6-trimethylphenyl)prop-2-enamide]",74.847
9,"N#CC(=Cc1cnn(CCCl)c1)C(=O)NC1CCCCC1 [9-A16, 3-[1-(2-chloroethyl)-1H-pyrazol-4-yl]-2-cyano-N-cyclohexylprop-2-enamide]",83.2767
10,"CCCn1c(C)cc(C=C(C#N)C(=O)N2CCCC2)c1C [9-I03, 3-(2,5-dimethyl-1-propyl-1H-pyrrol-3-yl)-2-(pyrrolidine-1-carbonyl)prop-2-enenitrile]",89.259
11,"C=CC(=O)NCCC(=O)Nc1nc2n(n1)CCCC2 [2-M14, N-[2-({5H,6H,7H,8H-[1,2,4]triazolo[1,5-a]pyridin-2-yl}carbamoyl)ethyl]prop-2-enamide]",96.5261
12,"O=C(CCl)NC(=O)c1ccc(OC(F)F)cc1 [5-J22, N-(2-chloroacetyl)-4-(difluoromethoxy)benzamide]",104.907
13,"C=CC(=O)N1CCCCC1Cn1ccnn1 (stereo not shown) [2-K07, 1-{2-[(1H-1,2,3-triazol-1-yl)methyl]piperidin-1-yl}prop-2-en-1-one]",85.7184
14,"C=CC(=O)NCc1cnc(-c2ccc(C(F)(F)F)cc2)s1 [1-C13, N-({2-[4-(trifluoromethyl)phenyl]-1,3-thiazol-5-yl}methyl)prop-2-enamide]",68.9088
15,"N#CC(=Cc1coc2ccccc2c1=O)C(=O)NCCc1ccccc1 [9-J10, 2-cyano-3-(4-oxo-4H-chromen-3-yl)-N-(2-phenylethyl)prop-2-enamide]",63.1543
16,"O=C(CCl)c1cn(-c2cccc(C(F)(F)F)c2)nn1 [10-C09, 2-chloro-1-{1-[3-(trifluoromethyl)phenyl]-1H-1,2,3-triazol-4-yl}ethan-1-one]",24.9367
17,"Cc1cc(CN(C(=O)CCl)c2cn(C)nn2)ccc1Cl [5-I12, 2-chloro-N-[(4-chloro-3-methylphenyl)methyl]-N-(1-methyl-1H-1,2,3-triazol-4-yl)acetamide]",91.7936
18,"Cc1nn(C)c(C)c1C(NC(=O)CCl)C(F)(F)F (stereo not shown) [5-M18, 2-chloro-N-[2,2,2-trifluoro-1-(1,3,5-trimethyl-1H-pyrazol-4-yl)ethyl]acetamide]",100.2
19,"CC(Cl)C(=O)N1CCn2c(Cc3c(F)cccc3F)nnc2C1 (stereo not shown) [6-F18, 2-chloro-1-{3-[(2,6-difluorophenyl)methyl]-5H,6H,7H,8H-[1,2,4]triazolo[4,3-a]pyrazin-7-yl}propan-1-one]",81.4485
20,"O=C(CCl)N1CCC(CCc2ccccc2)CC1 [6-G12, 2-chloro-1-[4-(2-phenylethyl)piperidin-1-yl]ethan-1-one]",80.8418
21,"CC(=O)NC1(c2nc(C)cs2)CCN(C(=O)C(C)Cl)C1 (stereo not shown) [7-O06, N-[1-(2-chloropropanoyl)-3-(4-methyl-1,3-thiazol-2-yl)pyrrolidin-3-yl]acetamide]",82.868
22,"C=CC(=O)NCCc1ccnn1C [2-O17, N-[2-(1-methyl-1H-pyrazol-5-yl)ethyl]prop-2-enamide]",95.1365
23,"Nc1c(C(=O)CCl)c(=O)[nH]c(=O)n1C1CC1 [10-P06, 6-amino-5-(2-chloroacetyl)-1-cyclopropyl-1,2,3,4-tetrahydropyrimidine-2,4-dione]",106.293
24,"CC(Cl)C(=O)NCc1ccn(CC(F)F)n1 (stereo not shown) [7-I17, 2-chloro-N-{[1-(2,2-difluoroethyl)-1H-pyrazol-3-yl]methyl}propanamide]",75.9954
25,"N#CC(=Cc1cccc(O)c1)C(=O)Nc1ccc(SC(F)F)cc1 [9-C19, 2-cyano-N-{4-[(difluoromethyl)sulfanyl]phenyl}-3-(3-hydroxyphenyl)prop-2-enamide]",77.2944
26,"N#CC(=Cc1ccccc1Cl)C(=O)Nc1ccc(Cl)cc1 [8-B11, 3-(2-chlorophenyl)-N-(4-chlorophenyl)-2-cyanoprop-2-enamide]",81.6451
27,"CC(Cl)C(=O)Nc1cccnc1Cl (stereo not shown) [6-C17, 2-chloro-N-(2-chloropyridin-3-yl)propanamide]",88.1221
28,"C=CC(=O)Nc1cnn(-c2ccccc2)c1C(F)F [3-I03, N-[5-(difluoromethyl)-1-phenyl-1H-pyrazol-4-yl]prop-2-enamide]",110.969
